The whole screen tested about 410,000 compounds, of which about 7,200 (1.8%) were called active. Inconclusive results, whose numbers are uncertain, are shown with a selection of clear calls. The call rests on the fitted dose curve; in most records, active means well fitted activation curve with a large enough effect; inconclusive means small, poorly fitted or top-dose-only effect, or another doubt; inactive means no such curve, though single readings can be large or run the other way. No potency is given beside an inconclusive call; the fits are too rough.
Assay: qHTS of TDP-43 Inhibitors; further: nearly all actives have a fitted effect of over 50% in size; on growth rescue (activation): % of control where 0% means no effect
Settings: TDP-43 expressing yeast growth rescue, BacTiter-Glo, 24 h; growth rescue (activation): at 46.1 µM (top of the series) unless noted
Summary of the method: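 Yeast cells expressing TDP-43 under galactose induction are exposed to compounds for 24 hr at 30 deg C. BacTiter-Glo luminescence measures growth, so protective compounds score as activators.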
Potency means the concentration at half of the fitted maximal effect; tags describe the fitted curve by direction and shape.

Which Potency does the source give for `O=C(CCn1cccc1)Nc1ccc(F)cc1` here?
Its Potency is inconclusive [activator, partial curve].

With `COc1ccc(NC(=O)CSc2nnnn2C2CC2)cc1S(=O)(=O)N1CCOCC1` as the molecule, how does the Potency read?
The Potency was inconclusive [activator, partial curve, poor fit].

With `CC1(c2nnc(-c3ccccc3)o2)CC(c2ccc([N+](=O)[O-])cc2)=NO1` (configuration not stated) as the molecule, how does the Potency read?
Its Potency is inconclusive [activator, single point].

For `C=CCn1c(=S)[nH]c2scc(-c3cccs3)c2c1=O`, which Potency is on record?
Its Potency is inconclusive [activator, partial curve].

For `O=C1CCCc2cc3c(cc21)CC1(C3)Cc2cc3c(cc2C1)C(=O)CCC3`, which Potency is on record?
The Potency was inconclusive [activator, partial curve].

Which Potency does the source give for `Fc1ccc(Nc2ncnc3onc(-c4ccc(Cl)cc4)c23)cc1Cl` here?
Its Potency is inconclusive [activator, partial curve].

For `CCn1c(C)c(C)c2cc(C(=O)NCc3ccc(F)cc3)ccc21`, which Potency is on record?
Its Potency is inconclusive [activator, partial curve].

With `NC(=O)COC(=O)c1ccccc1Nc1ccc(SC(F)F)cc1` as the molecule, how does the Potency read?
The Potency was inconclusive [activator, single point].

Which Potency does the source give for `COc1ccc(CCNC(=S)N2CCC(C(=O)c3ccc(F)cc3)CC2)cc1OC` here?
Its Potency is inconclusive [activator, single point].

Which Potency does the source give for `Cc1noc(C)c1C(=O)Nc1nc(-c2ccc(F)c(F)c2)cs1` here?
Its Potency is inconclusive [activator, partial curve].

Which growth rescue (activation) does the source give for `COC(=O)CSC1=NS(=O)(=O)c2ccccc21` here?
Its growth rescue (activation) is inconclusive: -92.9% [activator].

For `COc1cccc(CNc2nc3cc(-c4cscc4C)sc3c(=O)n2C)c1`, which Potency is on record?
Its Potency is active: 20 µM.

Which Potency does the source give for `CCOC(=O)C(C)On1c(-c2cccc(Cl)c2)nc2ccc([N+](=O)[O-])cc21` (configuration not stated) here?
The Potency was inconclusive [activator, single point].

For `CC(=O)Oc1ccc(-c2nc3c(C)cccc3c(=O)o2)cc1`, which Potency is on record?
The Potency was active: 12.6 µM.

Which Potency does the source give for `COc1ccc(N2CCN(C(=O)CSc3nnc4c(C)cc5ccc(C)c(C)c5n34)CC2)cc1` here?
The Potency was active: 14.1 µM.

With `COc1ccccc1NC(=O)c1ccc(CN2C(=O)C(C)=C(c3ccc(C)c(C)c3)S2(=O)=O)cc1` as the molecule, how does the Potency read?
Its Potency is inconclusive [activator, partial curve, poor fit].

For `CC12CC3CC(C)(C1)CC(C(=O)NC(=S)N1CCOCC1)(C3)C2`, which Potency is on record?
The Potency was inconclusive [activator, single point].

For `COC(=O)c1cccc(NC(=O)COc2cccc([N+](=O)[O-])c2)c1`, which Potency is on record?
The Potency was active: 11.2 µM.

With `O=C1OC(c2ccccc2)(c2ccccc2)c2ccccc21` as the molecule, how does the Potency read?
The Potency was inconclusive [activator, single point].

With `C/C(=N\OC(=O)Nc1ccccc1)c1ccc(C)cc1` as the molecule, how does the Potency read?
The Potency was inconclusive [activator, single point].

Which Potency does the source give for `Cc1nc(SCc2cccc(Oc3ccccc3)c2)n[nH]1` here?
Its Potency is active: 28.2 µM.

Which Potency does the source give for `COc1ccc(Oc2ncnc3sccc23)cc1` here?
The Potency was inconclusive [activator, single point].

With `CCOC(=O)c1sc(C)c2c1NC(C)(c1ccccc1)NC2=O` (configuration not stated) as the molecule, how does the Potency read?
The Potency was “inactive”.

With `Cc1noc(-c2ccc(NC(C)c3ccccc3)c([N+](=O)[O-])c2)n1` (configuration not stated) as the molecule, how does the Potency read?
Its Potency is inconclusive [activator, partial curve].

For `COc1ccc(Cl)cc1-c1cc(C(=O)NCc2ccccc2)[nH]n1`, which Potency is on record?
Its Potency is inconclusive [activator, single point].

For `COC(=O)/C=C1\OCc2ccc(C)cc21`, which Potency is on record?
Its Potency is inconclusive [activator, partial curve].

For `COc1ccc(NC(=S)NCCCCCC(=O)C[N+](=O)[O-])cc1`, which Potency is on record?
The Potency was inconclusive [activator, single point].

With `Cc1cc(Cl)ccc1NC(=O)C1CCCN1C(=O)c1cccs1` (configuration not stated) as the molecule, how does the Potency read?
Its Potency is “inactive”.

With `O=S(=O)(NC(=S)NC1CCCCC1)c1ccc(Cl)cc1` as the molecule, how does the Potency read?
The Potency was “inactive”.

Which Potency does the source give for `C=CCNC(=S)Nc1sc2c(c1C(=O)OCC)CC(C)(CC)OC2` (configuration not stated) here?
The Potency was inconclusive [activator, single point].

Which Potency does the source give for `COc1ccc(C2=NNC(=Nc3cc(S(=O)(=O)N(C)C)ccc3C)SC2)c(OC)c1` here?
Its Potency is “inactive”.

Which Potency does the source give for `O=C1CC(N2CCCCC2)C(=O)N1c1ccccc1` (configuration not stated) here?
The Potency was inconclusive [activator, single point].

Which Potency does the source give for `Cc1ccc(CCNS(=O)(=O)c2c(C)nc3sc(C)c(C)n3c2=O)cc1` here?
Its Potency is “inactive”.

With `COc1ccc(CNC(=O)CCSCc2ccccc2C)cc1` as the molecule, how does the Potency read?
The Potency was active: 7.08 µM.

Which Potency does the source give for `COc1ccc(C(C)(O)c2nc(-c3ccc(OC)c(OC)c3)cs2)cc1` (configuration not stated) here?
Its Potency is inconclusive [activator, single point].

With `Cc1ccc(CNC(=O)c2ccc(CSCc3cccc(C)c3)o2)cc1` as the molecule, how does the Potency read?
Its Potency is active: 35.5 µM.

Which Potency does the source give for `C#CCn1c(=NC(=O)c2ccc(Cl)s2)sc2cccc(OC)c21` here?
The Potency was inconclusive [activator, partial curve].

Which Potency does the source give for `CN1c2ccc(Cl)cc2-c2nc(SCC(=O)NCc3ccccc3)ncc2S1(=O)=O` here?
Its Potency is “inactive”.

Which Potency does the source give for `Cc1ccc(OC(=O)CN2C(=O)c3ccccc3C2=O)cc1C` here?
The Potency was inconclusive [activator, single point].

Which Potency does the source give for `COc1cccc(CNC(=O)c2cnc(N3CCCCC3)c3ccccc23)c1` here?
The Potency was “inactive”.

For `CC(O)(c1cccc(F)c1)c1nc(-c2cccc(C(=O)O)c2)cs1` (configuration not stated), which Potency is on record?
Its Potency is active: 35.5 µM.

Which Potency does the source give for `Cc1c(=O)n(OCc2cccc(F)c2)c2ccccc2[n+]1[O-]` here?
The Potency was inconclusive [activator, single point].

For `CC(C)(C)NC(=O)c1ccc2c(c1)N(CC(=O)N1CCN(c3ccccc3F)CC1)C(=O)C(C)(C)O2`, which Potency is on record?
Its Potency is “inactive”.

Which Potency does the source give for `CC(C)(C)c1cc(NS(=O)(=O)c2ccc3c(c2)OCCO3)on1` here?
Its Potency is active: 12.6 µM.

Which Potency does the source give for `Cc1cccc(NS(=O)(=O)c2ccc(C3CCCCC3)cc2)c1` here?
Its Potency is inconclusive [activator, single point].

With `Cn1c(C(=O)N2CCN(c3ccc(F)cc3)CC2)cc2ccccc21` as the molecule, how does the Potency read?
The Potency was inconclusive [activator, single point].

With `COc1cccc(/C=C(\C(=O)O)c2ccccc2)c1` as the molecule, how does the Potency read?
The Potency was inconclusive [activator, partial curve].

With `COCCNc1oc(/C=C/c2ccc(F)cc2)nc1C#N` as the molecule, how does the Potency read?
The Potency was inconclusive [activator, partial curve].

For `CCOc1ccccc1NC(=O)N1CCC(n2nnc3cc(C)ccc32)CC1`, which Potency is on record?
The Potency was inconclusive [activator, single point].

Which Potency does the source give for `Cc1ccc(OCc2ccc(-c3nc(C#N)c(NCc4ccccc4Cl)o3)o2)cc1` here?
The Potency was “inactive”.

Which Potency does the source give for `Cc1ccc2cc(CN(CCCN3CCOCC3)C(=O)NC3CCCCC3)c(=O)[nH]c2c1C` here?
The Potency was “inactive”.

Which Potency does the source give for `Cc1cccc(N2CCN(C(=O)CCCOc3ccccc3)CC2)c1C` here?
Its Potency is inconclusive [activator, single point].

For `O=C(N/N=C/c1coc2ccccc2c1=O)c1ccncc1`, which Potency is on record?
The Potency was inconclusive [activator, single point].

Which Potency does the source give for `COc1cccc(SCc2noc(C(=O)NCC3CC3)c2C(=O)NCC2CC2)c1` here?
Its Potency is “inactive”.

With `CC(/C=N/NC(=O)c1cc(C(C)C)[nH]n1)=C\c1ccccc1` as the molecule, how does the Potency read?
Its Potency is “inactive”.

Which Potency does the source give for `COc1ccc(C(=O)NCCSCc2ccccc2C)cc1` here?
The Potency was inconclusive [activator, partial curve].

With `C/C(=N\OC(=O)c1cccc(Cl)c1)c1sc(C)nc1C` as the molecule, how does the Potency read?
The Potency was inconclusive [activator, partial curve].

Which Potency does the source give for `Cc1nn2c(C)c(C(=O)Nc3ccccc3)cnc2c1-c1ccccc1` here?
The Potency was inconclusive [activator, single point].

Which Potency does the source give for `Cc1nc(N2CCN(C(=O)c3ccco3)CC2)nc2c1C(=O)CCC2` here?
The Potency was inconclusive [activator, single point].

For `CCOC(=O)CSc1nc2c(c(-c3ccc(C)o3)c1C#N)CCCC2`, which Potency is on record?
The Potency was “inactive”.

For `c1ccc(C(Cc2nc(-c3ccccn3)no2)c2ccccc2)cc1`, which Potency is on record?
The Potency was inconclusive [activator, single point].

For `Cc1cc(C)cc(N(CCC#N)C(=O)CSC2=Nc3ccccc3C3CC=NN23)c1` (configuration not stated), which Potency is on record?
Its Potency is inconclusive [activator, partial curve].

For `Cn1nc(C(F)(F)F)c2cc(NC(=O)OCc3ccc(F)cc3)sc21`, which Potency is on record?
The Potency was inconclusive [activator, partial curve].

Which Potency does the source give for `COc1cccc(-c2noc(COc3ccccc3Cl)n2)c1` here?
Its Potency is inconclusive [activator, full curve, poor fit].

Which Potency does the source give for `O=C(CSCc1cnn(-c2ccccc2)c1-n1cccc1)NCc1cccs1` here?
Its Potency is inconclusive [activator, partial curve].

With `CN(C)c1ccc(/C=C(/C(=O)c2ccc(Cl)cc2Cl)n2cncn2)cc1` as the molecule, how does the Potency read?
Its Potency is inconclusive [activator, single point].

For `O=C(CCNS(=O)(=O)c1ccc(Br)s1)N1CCN(c2ccccc2)CC1`, which Potency is on record?
The Potency was active: 17.8 µM.

With `COc1cc2c(cc1NC(=O)CCC(=O)O)oc1ccccc12` as the molecule, how does the Potency read?
Its Potency is inconclusive [activator, single point].

Which Potency does the source give for `CCN(CC)CCNC(=O)Cn1nc(C)c2c(C)n(-c3ccccc3)nc2c1=O` here?
Its Potency is “inactive”.

Which Potency does the source give for `O=C(c1ccc(F)cc1F)N1CCN(c2ncccn2)CC1` here?
The Potency was “inactive”.

With `COc1ccc(-c2csc(-c3ccccc3)n2)c(OC)c1` as the molecule, how does the Potency read?
Its Potency is inconclusive [activator, single point].

Which Potency does the source give for `c1ccc(-c2nc3nc4ccccc4nc3n2Cc2ccco2)cc1` here?
The Potency was inconclusive [activator, single point].
